Sequences and labels used below:
B1: antibody D105N_IgG4PE_R409K_P (antibody)
heavy: QVQLVQSGAEVKKPGASVKVSCKASGYTFTNHYMHWVRQAPGQGLEWMGIINPISGSTSNAQKFQGRVTMTRDTSTSTVYMELSSLRSEDTAVYYCARDIVDAFNFWGQGTMVTVSSASTKGPSVFPLAPCSRSTSESTAALGCLVKDYFPEPVTVSWNSGALTSGVHTFPAVLQSSGLYSLSSVVTVPSSSLGTKTYTCNVDHKPSNTKVDKRV[letters of human IgG4 Fc with S228P L235E V308P R409K (EU numbers) omitted]
light: AIQLTQSPSSLSASVGDRVTITCRASQGISSALVWYQQKPGKAPKLLIYDASSLESGVPSRFSGSGSGTDFTLTISSLQPEDFATYYCQQFNDYFTFGPGTKVDIK
B2: antibody I100H_IgG4PE_R409K_P (antibody)
heavy: B1 heavy with I100H, N105D
light: B1 light
B3: antibody I100Y_IgG4PE_R409K_P (antibody)
heavy: B1 heavy with I100Y, N105D
light: B1 light
B4: antibody I100A_IgG4PE_R409K_P (antibody)
heavy: B1 heavy with I100A, N105D
light: B1 light

Data on 4 molecules can be found in patent US20250163140A1.

Substitutions are numbered along the chain they refer to.

This assay concerns the target Recombinant Human FGF-23 (R&D Systems, Cat No. 2604-FG-025/CF) (human) (UniProt Q9GZV9). Put plainly: cell-based or functional assay.
Chain of UniProt Q9GZV9 (Q9GZV9 25-251 limits assumed): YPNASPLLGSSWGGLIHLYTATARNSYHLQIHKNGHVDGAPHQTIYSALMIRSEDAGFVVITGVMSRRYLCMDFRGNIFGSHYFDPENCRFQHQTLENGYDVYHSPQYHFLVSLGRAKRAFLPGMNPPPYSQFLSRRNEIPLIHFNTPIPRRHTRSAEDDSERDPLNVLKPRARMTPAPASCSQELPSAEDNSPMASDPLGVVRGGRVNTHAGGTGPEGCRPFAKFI
For the molecule B1, the FGF23 neutralizing activity IC50 (luciferase promoter assay) was found to be 13.3 ng/mL. With B2 the figure was 14.4 ng/mL.

For B3, the FGF23 neutralizing activity IC50 (luciferase promoter assay) was 4.1 ng/mL.

B4: the FGF23 neutralizing activity IC50 (luciferase promoter assay) worked out at 5.2 ng/mL.
